Laboratory results as given in PubChem BioAssay AID1347073 (National Center for Advancing Translational Sciences (NCATS), 2019).
The campaign covered roughly 45,000 compounds. About 200 (0.44%) were called active. Not shown: some 7% with an inconclusive outcome. The call rests on the fitted dose curve; in most records, active means well fitted activation curve with a large enough effect; inconclusive means small, poorly fitted or top-dose-only effect; inactive means no such curve, though single readings can be large or run the other way. Some of the results follow.

Assay: qHTS of TDP-43 Inhibitors: NCGC Sytravon Library Screen; further: 0% is about no effect; nearly all actives have a fitted effect of over 55% in size
Conditions: yeast TDP-43 toxicity rescue, BacTiter-Glo growth, 24 h; series mostly up to 46.1 µM; growth rescue (activation): at the top concentration
Summary of the method: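 TDP-43-expressing yeast, pregrown in raffinose, seeded at OD600 0.02 in galactose medium with compound for 24 hr at 30 deg C. Growth read by BacTiter-Glo luminescence, so rescue of toxicity appears as activation.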

SMILES | growth rescue (activation)
Cc1cc(=O)[nH]c(N2CCN(c3ccc(Cl)cc3)CC2)n1 | inactive: -5.37%
Cc1ccc(-n2nnnc2SCC(=O)Nc2cc(C)on2)c(C)c1 | inactive: 5.19%
Cc1ccc(CNC(=O)CN(C(=O)C2(C)CC(=O)N=C3C=CC=CN32)c2ccccc2F)cc1 (configuration not stated) | inactive: -24.3%
Cc1ccc(S(=O)(=O)N2CCOCC2)cc1NC(=O)COC(=O)C1COc2ccccc2O1 (configuration not stated) | inactive: 11.6%
Cc1ccccc1Cn1c(O)c(N=NC(=S)Nc2ccccc2F)c2ccccc21 | inactive: 13.8%
COc1ccccc1-n1c(=O)c(C#N)c(-c2ccc([N+](=O)[O-])cc2)c2cc(C(=O)c3cc(F)ccc3O)cnc21 | inactive: -9.36%
COc1ccc(S(=O)(=O)N2CCCCC2)cc1NS(=O)(=O)c1ccccc1 | inactive: 5.72%
COc1ccc(N(Cc2cc(=O)[nH]c3ccccc23)C(C)=O)cc1 | inactive: 9.34%
O=S(=O)(NC1=NCCCCC1)c1ccc(F)cc1 | inactive: 17.6%
CCOC(=O)C1CCCN(S(=O)(=O)c2ccc(S(N)(=O)=O)cc2)C1 (configuration not stated) | inactive: 12.5%
CSc1ncccc1C(=O)OCC(=O)N1CC2(C)CC1CC(C)(C)C2 (configuration not stated) | inactive: -8%
CC1CCN(c2c(NCC3CCC(C(=O)NCCc4ccc(Cl)cc4)CC3)c(=O)c2=O)CC1 (configuration not stated) | inactive: -13.9%
CCCc1nnc(SCC(=O)Nc2nc(C)cs2)n1CCOC | inactive: -9.31%
CCc1nc2c(OCC(=O)c3ccc(F)cc3)cccn2c1N(C)C(=O)C(C)C | inactive: 6.13%
CCCN(CCC)S(=O)(=O)c1cc2c(cc1Br)CCN2C(=O)CC | inactive: -16%
CCc1nc2ccc(C(=O)NCCCn3ccnc3)cn2c1N(C)Cc1ccc(OC)cc1 | inactive: -0.258%
CCC(CC)C(=O)OCC(=O)Nc1cccc(S(=O)(=O)N(C)c2ccccc2)c1 | inactive: 1.39%
CN(NS(C)(=O)=O)c1c(C#N)c(C(F)(F)F)nn1C | inactive: -6.9%
O=C(COC(=O)COc1ccccc1[N+](=O)[O-])Nc1ccc2c(c1)OCO2 | inactive: 11.8%
Cc1ccccc1CNC(=O)C(C)n1nc(C)n2c(cc3occc32)c1=O (configuration not stated) | inactive: 7.15%
Nc1nnc(SCc2ccc([N+](=O)[O-])cc2)s1 | inactive: 4.88%
COc1ccc(CC(=O)OCC(=O)NCc2ccc3c(c2)OCO3)cc1OC | inactive: 12.5%
O=C(NC1CCN(C(=O)NCc2ccccc2)CC1)c1ccc(F)cc1 | inactive: -0.833%

SMILES | growth rescue (activation)
CC(C)c1nnc(NC(=O)COc2ccc3c(c2)OCO3)s1 | inactive: 10.5%
Cc1ccc(C)c(NC(=O)CCN2CCc3ccccc3C2)c1 | inactive: 12.2%
Cc1ccc(C)c(C(=O)CN2C(=O)c3ccccc3C2=O)c1 | inactive: 10.9%
CCCNC(=O)C1(C)CCN(C(=O)c2ccccc2OC(F)(F)F)C1 (configuration not stated) | inactive: -5.6%
CCCCn1c(=O)[nH]c(=O)c2c1nc(-c1ccccn1)n2CC | inactive: 7.45%
O=C(N/N=C/c1cccc([N+](=O)[O-])c1)c1c[nH]c2ccccc12 | inactive: 3.31%
CC(=O)c1ccc(NC(=O)CSc2nc(=O)cc(N)n2-c2ccccc2)cc1 | inactive: -4.33%
CC(C)(C)N(Cc1ccccc1)C(=O)COC(=O)c1ccc2ccccc2n1 | inactive: -1.08%
COc1ccc(Cl)cc1NC(=O)[C@@H]1CCCN1C(=O)c1cccs1 | inactive: 10.8%
CCOC(=O)c1sc(NCCNc2nc(C)c(C(=O)OCC)s2)nc1C | inactive: 20.8%
COc1ccc(NC(=O)CSc2nc3nc(C)cc(C)n3n2)cc1 | inactive: 6.88%
COc1cccc(CNC(=O)CCc2nnc3n(C)c(=O)c4sccc4n23)c1 | inactive: 13.5%
O=C(Nc1cccc(NC(=O)N2CCN(c3ccccc3)CC2)c1)N1CCN(c2ccccc2)CC1 | inactive: -11.3%
CCOc1ccc(CN(C)Cc2cc(=O)oc3cc(C)c(Cl)cc23)cc1 | inactive: 7.7%
CC(NC(=O)c1cc(Br)ccc1Cl)c1ccccc1 (configuration not stated) | inactive: 17.9%
CCOc1cc2c(cc1OCC)C(c1ccccc1)N(c1ccc(C(=O)O)cc1)C(=O)C2 (configuration not stated) | inactive: -12.4%
CCCCNC(=O)/C=C/c1cccs1 | inactive: 8.71%
O=C(O)C(c1ccccc1)N1C(=O)/C(=C/c2cccs2)SC1=S (configuration not stated) | inactive: 29.8%
COCc1c(Br)c(C)nc2sc3c(=O)[nH]nnc3c12 | inactive: -12.6%
CN1CCN(S(=O)(=O)c2ccc(NC(=O)COc3ccccc3Cl)cc2)CC1 | inactive: 7.37%
O=C(CSc1nc(-c2cccs2)cc(C(F)(F)F)n1)Nc1cc(OCC(F)(F)F)cc([N+](=O)[O-])c1 | inactive: 16%
CCc1cc(=O)n2[nH]c(-c3ccccc3)c(-c3ccccc3)c2n1 | inactive: -3.6%
COc1ccc(C2(C)NC(=O)N(CC(=O)NCC(=O)Nc3ccc(F)c(F)c3F)C2=O)cc1OC (configuration not stated) | inactive: 2.67%

SMILES | growth rescue (activation)
O=C(Nc1ccc2c(c1)OCCO2)C1CC(O)CN1C(=O)Nc1ccccc1 (configuration not stated) | inactive: -15.5%
CCn1c(CN2CCC(C)CC2)nc2cc(NC(=O)c3ccccc3[N+](=O)[O-])ccc21 | inactive: 14.7%
CCOc1ccc(-n2c(-c3ccc(Cl)cc3)c[n+]3c2SCC3)cc1 | inactive: 4.41%
Cc1ccc(CNC(=O)CCCc2c[nH]c3ccccc23)cc1 | inactive: 33.8%
O=C(CSc1nnc(-c2ccccc2Br)o1)N1CCOCC1 | inactive: -2.93%
CC1=NN(C(=O)COc2ccc(C)c(C)c2)C(O)(c2ccccc2)C1 (configuration not stated) | inactive: 7.92%
O=C(Nc1cc(Sc2nc3ccccc3s2)cc([N+](=O)[O-])c1)c1cccc(F)c1F | inactive: -13.4%
OC(c1ccc(F)c(F)c1)c1nc(-c2cc(F)cc(F)c2)cs1 (configuration not stated) | inactive: -39.7%
CC(=O)c1c(C)[nH]c(C(=O)Nc2cccc(C)c2C)c1C | inactive: 19.4%
O=C(O)CCC(=O)NNc1ncnc2ccccc12 | inactive: -0.0203%
CCN(C(=O)COC(=O)C12CC3CC(CC(NC(C)=O)(C3)C1)C2)C1CCCCC1 | inactive: 28.8%
Nc1c(NCCN2CCCCC2)c2ccccc2oc1=O | inactive: 11.4%
N/C(=N\c1nc2ccccc2o1)NC(=O)c1ccc([N+](=O)[O-])cc1 | inactive: 10.7%
O=C(O)C1CCN(S(=O)(=O)c2cccs2)CC1 | inactive: 11.2%
Cn1c(NCCc2ccccc2)cc(=O)n(C)c1=O | inactive: -11.8%
COc1ccc(Cc2nnc(NC(=O)Nc3ccccc3OC)s2)cc1 | inactive: -0.196%
Cc1cc(NC(=O)c2ccc3c(c2)C(=O)N(c2cccc(C)c2C)C3=O)no1 | inactive: 22.4%
CCc1nnc(NC(=O)CCC(=O)NC2CCCc3ccccc32)s1 (configuration not stated) | inactive: 1.9%
COc1ccc(-n2cc(CNC3CCN(C)CC3)c(-c3cccc(F)c3)n2)cc1 | inactive: -0.552%
CC(C)c1ccc(NC(=O)Nc2nc(CN)cs2)cc1 | inactive: -5.64%
CC(=NNC(=O)Cn1ccc(C(F)(F)F)n1)c1ccc(-n2ccnc2)cc1 | inactive: 9.42%
